The full ranking holds about 33,000 sequences; the median of “E-score (-0.5 to 0.5)” is about -0.054, and the highest 2% start at about 0.39. This is one part of the list.
biological target: Ylr278c (UniProt Q05854); experiment: PBM E-score (8-mer binding enrichment) (E-score (-0.5 to 0.5)); higher = stronger / more preferred TF binding; most listed sequences are background and not binding sites; conditions: protein concentration: 200 nM; construct: GST-DNA-binding domain
Method in brief: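 Yeast transcription factors, full-length or as DNA-binding domains, were expressed with a GST tag using PURExpress in vitro transcription/translation. At about 100-200 nM they were applied to universal all-10-mer Agilent arrays, double-stranded by primer extension on fresh or once-stripped slides. Fluorescent anti-GST detected bound protein, and masliner normalised the scans. E-scores for ungapped eight-base words, pooled with reverse complements, came from the Universal PBM Analysis Suite.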

Sequence | PBM E-score
GTGGGACA | -0.069
CAAGTCCC | -0.108
GACCGTAC | -0.216
CACTGAAA | 0.0396
ATGTCCAC | 0.0449
ATCCTATA | -0.0589
CGATAATC | 0.0657
ACGTCACC | -0.0921
ACACCAGG | -0.186
AAATCAAC | -0.111
CTCGCTCC | 0.0527
AGGTATTC | -0.0359
AATACGCA | -0.0994
ACGCGGGC | 0.186
AGCGAGCA | -0.192
GTCGCCTA | -0.0998
CCACGGAC | 0.272
CGAGCCAA | -0.0654
CAGAGCGG | 0.125
CCTGCCTA | -0.101
AGTTGTTG | -0.0499
ATATACTA | 0.0964
CCCGTGTA | 0.122
AAGAAACG | -0.00449
TCAGTCGA | -0.204

Sequence | PBM E-score
CCTGAGAA | -0.159
GGCTACCC | -0.161
GGATCCGA | 0.35
GACATGTC | -0.0847
ATTATCTA | -0.1
AAAAAACA | 0.0735
ACCCGGAC | 0.396
GTTATGCA | -0.167
GAAGGCGA | 0.00481
ATCATACC | 0.0189
CGTAACTA | -0.164
AAAAGAGC | -0.201
AGTATATC | -0.0628
ATGTAGGA | -0.0983
ATCGACAT | -0.0486
CGGTTTTC | 0.211
CGTTCGGC | 0.235
GCTGCACC | 0.00051
CGCATTAC | 0.142
CTACCATC | -0.163
AGAGCTTA | -0.0628
ATCTCATA | -0.168
CCCGGAAC | 0.4
AACTGTAA | -0.0107
GAGGCCGC | 0.143

Sequence | PBM E-score
ACCTCATC | -0.0463
CGGGCTTA | 0.246
CGGACCCG | 0.394
CGTCGGCC | 0.266
ATGACAAG | 0.00284
GAGCCTTA | -0.0189
GACTTGGC | -0.214
GTACGTAC | -0.146
GTCATTCA | -0.0381
GCAAAACA | -0.0358
AATACTAT | -0.153
CGCGGGGA | 0.364
ACCCGTAA | -0.017
CCCTCGAC | -0.0105
AAGATATA | 0.0151
CTGCAACA | 0.0318
CCTGTGTA | -0.182
ATCTATCA | -0.0379
AGAGATAC | 0.00525
CAGGAGAG | -0.205
AGGGTGTC | -0.065
CCAAGAGG | -0.208
AGAGCAAA | -0.204
CAAGACCA | -0.212
ATAGAATA | -0.0964

Sequence | PBM E-score
AAGGAGGC | -0.284
GTCTGCTA | -0.184
CCCCCTCG | -0.272
CATGACGC | -0.0913
ACTTCTGC | -0.0381
ATTATGGG | 0.0241
CTCAGAAA | -0.257
CTTACCCC | -0.0218
ACTTGTTG | -0.337
AGTACGCA | -0.201
AAGAGACG | 0.0605
AAGGAGTG | -0.179
ATGTACCG | 0.112
ACCAATAT | -0.0997
CAGACTAA | -0.196
CGGCTCTA | 0.19
ACCTCGCA | -0.0606
AACAGCAA | -0.0673
CGCCAAGC | -0.0363
ACACACGC | 0.0421
AACCGTGA | -0.0334
GAGACCTC | -0.0742
CACGGTGA | 0.0314
CTCGGCGC | 0.253
ACGCAATG | -0.175

Sequence | PBM E-score
CGGCCATA | -0.0205
CGCCATAG | -0.135
ATAGCACC | -0.0166
AGGTCTTA | -0.211
ATGTAAAG | -0.0899
CAGCATAG | -0.147
CAGAGTCG | -0.0745
AATAGAGG | -0.0471
CCGCCGAG | 0.355
ATCTTACG | 0.0571
AAGTTTGG | -0.00617
CGACAACG | 0.102
AACTGCGG | 0.329
ATTAACGA | 0.0895
GACAGACA | 0.166
AACATGTC | 0.0207
CTGGAGGC | -0.095
AGTTTATC | 0.0456
CTTTGCCA | -0.0989
ATTGCGGC | 0.146
ATTATCTG | -0.0478
ACCGCAAA | 0.0525
ATTCGGGA | 0.207
CCATCGTA | -0.175
CCCGGGAA | 0.348

Sequence | PBM E-score
AATTCTTA | -0.104
CATTGACG | -0.0686
CCGTAGCA | 0.0425
GAACGAAA | -0.109
AGGTTAAC | -0.0568
CCAGTGGG | -0.0812
GGTACTTA | -0.00682
ATAGAGTC | -0.0754
ACCTTTGC | -0.0998
CCGTCCGA | 0.345
ACACGTCC | -0.0504
AAGATCGC | -0.105
CCGGGAAG | 0.334
AGAGTATG | -0.0782
CGATACAG | 0.0562
CCAATTTC | 0.186
AAATCGCT | 0.0357
CAGTAGCC | -0.118
ATGGACAG | -0.0876
ATATCTCC | 0.375
GTGAAGAA | -0.0132
AGGTGCAA | -0.134
GTCGAGAA | -0.164
GGAAATCA | 0.125
CCCCAAAG | -0.254

Sequence | PBM E-score
CAACGAAG | -0.206
AAGGCCAG | -0.129
AGCGTACT | -0.155
CTACCAAG | -0.194
ATATGTTG | -0.0904
AGGGCGGG | 0.228
AGACCAAT | -0.0851
TACTTGAA | -0.214
GCAGTACA | -0.148
GGATTACA | 0.0913
ACACACAC | -0.177
CGAGAATA | 0.0398
CATCGGCA | 0.284
CATCTTGG | -0.113
AGTGATAT | -0.13
CGAAGTAC | 0.104
GAAGGGGC | -0.115
TGAGAACA | -0.211
ATCCGCTC | 0.307
AAACGCGA | -0.0617
GTCGCGTA | -0.0688
ATCGCCAT | -0.0309
ACTTATAG | -0.101
AAGCGAGT | 0.0967
ATTAAAAG | -0.0816

Sequence | PBM E-score
ATAAAGAC | -0.109
ACCCCCAC | -0.25
TAAGGGGA | -0.0498
ATAACAAT | -0.0127
ATCATCGG | 0.344
AGAGTCAT | -0.305
GCGCGTTA | 0.137
AGCGTCAA | -0.115
ATTGACGC | -0.165
ACTTCGAA | -0.334
CAGTATCC | 0.00965
CGGATAAC | 0.369
GAACCGAC | 0.157
GGGCGCAC | -0.0472
CTCCCTAC | -0.203
CGTGGTCA | -0.247
ATAAAATG | -0.0348
ACTCTGGC | -0.0437
AATATTAC | 0.0239
AAGGACCA | -0.0395
ATATCGCA | -0.119
AGCGGGAT | 0.168
ATTTCATG | -0.149
GATATGGC | 0.0414
CCGGGAGG | 0.261

Sequence | PBM E-score
CGAAATGA | 0.127
CAGAAGGC | -0.118
CTGTTGGA | -0.194
AGACAGAA | -0.0904
ATTGAGTA | -0.0986
GGAGACTA | 0.0463
ACAGATGG | -0.0742
AGGATGAC | -0.284
ATGGTCGA | -0.26
ACACGTGT | -0.331
GGAAGAGA | 0.0892
CCGCCAGC | 0.206
GAACGTCA | -0.231
CGGTATTA | 0.27
CCCCGCTC | 0.184
ACGGTCCA | -0.0988
CGATCAAC | -0.0846
GCTATATA | -0.166
TACACTAA | -0.212
ACATCACG | -0.125
ACCGCCCC | 0.122
ATGAGATG | -0.114
AGCTTAAG | -0.229
AAAGAGCC | -0.152
ATGGCCTG | -0.135

Sequence | PBM E-score
CTTTGCTC | -0.0097
TAGCTGAA | -0.0659
GTCTGCAC | -0.0621
AACTAGGC | -0.27
CGCTTCCG | 0.314
AGTTCCCG | 0.237
AGCAAGAA | -0.166
CAGTCCTA | -0.265
CAGCGATG | -0.123
GAGCCAAC | -0.101
GAGTTGAC | 0.0611
ACCGGACT | 0.443
CATCAGAA | -0.271
GAAACCCC | 0.25
AGGGCTGC | -0.0949
GGGTTTGA | 0.0228
ATTTCGGA | 0.45
GTGTGTCA | -0.177
GGACACGA | 0.0337
GTTTATCA | 0.0561
ACGAGTTG | -0.176
ACGCGTTA | -0.0656
GGAATGCA | 0.163
AGAGACTG | -0.237
AGTTAGAT | -0.233

Sequence | PBM E-score
ATCACCGC | 0.118
ACCGAGCA | 0.181
ACTCGCCA | -0.0616
AACCTCGG | 0.261
GGTTAGAC | -0.0628
CTTAGAAA | -0.145
CTGGATAC | -0.109
CTGCTCGC | -0.0426
CGCGCGGA | 0.398
CTCGCCTC | -0.0537
ATTCTGCC | 0.116
CAGAGACC | -0.231
AATAGAAG | -0.108
TAGCAGGA | 0.00951
AAGTTCTG | -0.188
GGGCGAAA | 0.0355
GGCCCTTA | -0.186
ACGTAATA | -0.252
AGGGTTCC | 0.124
CCGGCGAC | 0.346
ACAATAAC | -0.00208
GCAACTCA | 0.00855
CTACCCAG | -0.26
CCGCATCC | 0.204
TAGCCTGA | -0.19

Sequence | PBM E-score
CTGAAGCA | -0.322
ACAAAAGG | 0.0804
ATTATAGA | -0.139
CACTTAGG | -0.125
CGGTTACG | 0.182
CTCTTCGC | 0.0532
CAGGGGAG | -0.0961
ACTTGCCA | -0.204
CTCATAGC | -0.335
AGGGGGAT | -0.112
GAATTTTA | 0.117
ATGTGAGG | -0.193
ACTAGAAC | 0.0671
ATTTATTC | 0.0865
GGTACATA | 0.196
GATCGATA | -0.106
CCACAGAA | -0.173
GAAAACGC | -0.0904
ATTGGGTA | -0.276
AATCGCAC | -0.132
AACACGAT | 0.0975
CTCGATGC | -0.162
GGCTACTA | -0.0113
ACGATCAT | -0.172
GGTACGAC | -0.154

Sequence | PBM E-score
CATCCCAA | -0.218
CAGACAGA | -0.223
GCCGAGAC | 0.139
CACTCCGC | 0.393
GCACTCCA | -0.071
ACTTTCAG | -0.0697
CATATCTC | 0.0114
AAGTACGT | -0.112
CGGGATCA | 0.193
ATCGCTTG | -0.321
AGCCCAAT | -0.15
CCTTTGTA | -0.23
CCACTGGG | -0.149
AGGCAATC | -0.163
ACTTTTCA | -0.324
GTCGGCAC | 0.171
ACGAATGC | -0.163
AGCACACG | -0.204
AAAATAAC | -0.142
CACGTGAA | -0.0639
TATGGAAA | -0.034
CGGACATC | 0.421
CGCCGAAA | 0.358
CGCGGACC | 0.386
AGTGGATC | 0.0696

Sequence | PBM E-score
ATATGGCG | 0.142
GGTCAAGA | -0.149
CAGGGTAA | -0.211
CCTACTAG | -0.254
CAGGATCA | -0.0765
AACATGAT | -0.0638
CACGAACC | -0.145
AAGCGATC | 0.0764
TAATCCTA | 0.0848
AAACACAC | -0.0375
ACCTACAT | -0.0972
CGCAAGAG | -0.0595
GGGGCTAC | 0.0935
ACGGTACT | 0.017
GGATAGAC | -0.0587
GGGTTAGA | -0.0507
CATCAACG | 0.0343
ACATCACT | -0.137
GATAGGAC | -0.123

Source: the supplement of paper PMC3334620
